# Reference: paper PMC4336329 (PLoS ONE, 2015)
# Among all 310,000 compounds or so, about 2,200 (0.71%) showed an effect of 50% or more. Effects have a minus sign here. The list shows a part of the results.
# Molecular target: human ether-à-go-go-related gene (hERG) potassium channel (human, UniProt Q12809)
# Test: primary screen, population patch clamp on CHO cells stably expressing hERG
# Chain of human ether-à-go-go-related gene (hERG) potassium channel (Q12809 whole entry, looked up): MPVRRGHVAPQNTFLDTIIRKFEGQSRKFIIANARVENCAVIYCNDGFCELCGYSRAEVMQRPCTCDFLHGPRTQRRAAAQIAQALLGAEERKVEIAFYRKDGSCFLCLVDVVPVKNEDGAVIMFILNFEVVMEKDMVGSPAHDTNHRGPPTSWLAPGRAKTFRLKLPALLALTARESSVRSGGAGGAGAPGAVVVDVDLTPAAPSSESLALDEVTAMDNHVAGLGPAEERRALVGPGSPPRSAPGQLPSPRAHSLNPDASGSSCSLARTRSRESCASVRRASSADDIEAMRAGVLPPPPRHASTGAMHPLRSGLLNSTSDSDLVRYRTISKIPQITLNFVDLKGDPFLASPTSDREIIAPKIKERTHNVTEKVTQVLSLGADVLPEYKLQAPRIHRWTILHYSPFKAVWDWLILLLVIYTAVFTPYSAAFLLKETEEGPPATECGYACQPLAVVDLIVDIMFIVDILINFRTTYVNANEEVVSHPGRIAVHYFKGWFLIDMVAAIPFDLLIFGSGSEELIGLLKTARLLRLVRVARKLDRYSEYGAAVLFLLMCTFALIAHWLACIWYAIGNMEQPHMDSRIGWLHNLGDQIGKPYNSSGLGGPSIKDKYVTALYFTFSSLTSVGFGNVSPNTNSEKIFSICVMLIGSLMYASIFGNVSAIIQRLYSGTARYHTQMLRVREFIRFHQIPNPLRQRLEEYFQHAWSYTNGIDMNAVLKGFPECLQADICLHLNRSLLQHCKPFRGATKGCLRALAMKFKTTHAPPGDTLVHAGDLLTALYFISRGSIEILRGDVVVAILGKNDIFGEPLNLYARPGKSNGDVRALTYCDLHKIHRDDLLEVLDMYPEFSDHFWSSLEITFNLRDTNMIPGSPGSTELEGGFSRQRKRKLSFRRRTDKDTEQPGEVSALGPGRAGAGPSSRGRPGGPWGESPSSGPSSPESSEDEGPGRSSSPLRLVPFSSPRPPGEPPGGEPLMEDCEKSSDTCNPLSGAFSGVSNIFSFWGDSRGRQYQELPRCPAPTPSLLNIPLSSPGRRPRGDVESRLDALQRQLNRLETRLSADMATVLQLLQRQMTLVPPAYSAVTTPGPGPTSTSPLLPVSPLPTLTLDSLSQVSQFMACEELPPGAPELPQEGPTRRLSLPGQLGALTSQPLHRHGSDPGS
row,SMILES,"hERG current change (%, negative = inhibition) at 1uM [%]"
1,Cl.O=S(=O)(c1ccc2nc(Cc3ccccc3)[nH]c2c1)N1CCOCC1,9.59
2,CCOc1ccccc1NC(=O)CN(c1cc(C)cc(C)c1)S(=O)(=O)c1c(C)noc1C,12.9
3,Cc1nn(C)c(Cl)c1C(=O)NCC(=O)O,5.03
4,Cc1cccc(N2C(=O)CC(Sc3nc(-c4ccccc4)c4cc(Cl)ccc4n3)C2=O)c1 (stereo not drawn),11.3
5,COc1ccc(COC(=O)Oc2ccc(CNC(C)=O)cc2OC)c([N+](=O)[O-])c1,8.09
6,COc1ccc(C(=O)N(C)Cc2ccccc2F)cc1S(=O)(=O)N1CCCC1,11.8
7,CC1(C(=O)Nc2c(F)c(F)c(F)c(F)c2F)CC1(Br)Br (stereo not drawn),11.2
8,COc1ccc(-c2cc(-c3ccccc3)nc(=O)[nH]2)cc1,5.3
9,COc1cc(C(=O)Nc2ccc(NC(C)=O)cc2)ccc1OCc1ccccc1,16.5
10,O=C(COC(=O)C12CC3CC(CC(C3)C1)C2)Nc1ccc(OC(F)F)cc1,2.54
11,CCC(=O)N1CCc2cc(Br)cc(S(=O)(=O)N3CCCCCC3)c21,-3.88
12,CCc1c(C)nc(N)nc1OCC(F)(F)C(F)F,4.12
13,COc1ccc(NC(=O)CCCN2C(=O)C(c3ccccc3)Oc3cccnc32)cc1 (stereo not drawn),21.8
14,Cc1ccc2cc(CN(CC3CCCO3)S(=O)(=O)c3cccc4nsnc34)c(=O)[nH]c2c1 (stereo not drawn),-23.3
15,O=C(CCC1CCCN(Cc2cccc(Cl)c2)C1)NCc1ccccc1F (stereo not drawn),-2.75
16,Cc1ccc(Cn2nnc3c(=O)[nH]c(C4CCCN(S(=O)(=O)c5ccccc5F)C4)nc32)cc1 (stereo not drawn),10.2
17,O=C(Nc1cccc(C(=O)N2CCOCC2)c1)c1ccc([N+](=O)[O-])cc1,8.86
18,COc1cc2c(cc1OC)CN(CC(=O)Nc1ccc3c(c1)OCO3)CC2,14.5
19,O=C(c1ccccc1)c1ccc(OCC(O)CN2CCN(S(=O)(=O)N3CCCCC3)CC2)cc1 (stereo not drawn),-12.6
20,Cc1nn(Cc2ccc(Cl)cc2)c(C)c1NC(=O)c1noc2c1CCCCC2,-9.73
21,Cc1c(-c2ccc(OCc3ccccc3)cc2)nc2ccccc2c1C(=O)O,12.7
22,COCCN(C(=O)COC(=O)c1cc2c(s1)CCCC2)c1c(N)n(Cc2ccccc2)c(=O)[nH]c1=O,0.316

row,SMILES,"hERG current change (%, negative = inhibition) at 1uM [%]"
1,COCCNC(=O)C1(C)C=CC2(CCCCC2)N1C(=O)c1ccccc1 (stereo not drawn),7.04
2,CS(=O)(=O)N(CC(=O)Nc1cccc([N+](=O)[O-])c1)c1ccccc1F,8.84
3,Cc1ccc(S(=O)(=O)N2CCC(=O)CC2)cc1,3.36
4,Cc1nn2c(NCc3ccccn3)cc(C(C)C)nc2c1-c1ccccc1,12.4
5,O=C1c2ccccc2-c2ccc(C(=O)N3CCOCC3)cc21,-4.45
6,CC(C)n1cnc2c(NCc3ccccc3)cc(Cc3ccc(F)cc3)cc21,14
7,CCOc1ccc(/C=C(\C#N)C(=O)c2c(C)[nH]c3ccccc23)cc1OC,10.6
8,O=C(O)c1cccc(NS(=O)(=O)c2ccc(Cl)c(C(=O)Nc3cccc([N+](=O)[O-])c3)c2)c1,12
9,O=C(N/N=C/c1ccncc1)NC1CCCCC1,17.3
10,Fc1c(F)c(F)c(/C=N/NC(=S)Nc2cccnc2)c(F)c1F,12.1
11,CC1CCN(c2ccc(C(=O)NCc3ccc4c(c3)OCO4)cc2[N+](=O)[O-])CC1,4.49
12,CCn1c(NCc2cc(OC)ccc2OC)nc2ccccc21,3.13
13,O=S(=O)(c1ccccc1)C1(C2CC(c3ccccc3)=NO2)CC(O)C1 (stereo not drawn),-9.74
14,Fc1ccc(CNC(=S)Nc2cccc(C(F)(F)F)c2)cc1,11.9
15,CCS(=O)(=O)N1CCC(C(=O)Nc2ccccc2OC)CC1,13.3
16,CC(C)CN(CC(C)C)S(=O)(=O)N1CCC(C(=O)NCc2ccccn2)CC1,2.28
17,COc1ccc(OCC(=O)Nc2ccc(NC(=O)c3cccs3)c(OC)c2)cc1,1.28
18,CC(NC1c2ccccc2-c2ccccc21)c1ccccc1 (stereo not drawn),10.9
19,CC1CCCC(C)N1C(=O)Cn1nnc(-c2ccccc2)n1 (stereo not drawn),16.6
20,CCOc1ccc(N=C(NC#N)SCC(=O)NC2CC2)cc1,0.963
21,COC(=O)C(Cc1ccccc1)NC(=O)c1ccc(C)cc1 (stereo not drawn),-0.691
22,Cc1ccnc(NC(=O)c2cc(S(=O)(=O)N3CCCCC3)ccc2Cl)c1,4.56

row,SMILES,"hERG current change (%, negative = inhibition) at 1uM [%]"
1,O=C(COC(=O)c1ccncc1)NCc1ccccc1,15.2
2,O=C(COc1ccc(F)cc1)Nc1cc(Cl)ccc1-n1cncn1,12.2
3,O=C(CCc1nc2ccccc2s1)OCC(=O)N1CCN(C(=O)c2ccco2)CC1,-0.575
4,NS(=O)(=O)c1ccc(NC(=S)NC(=O)C2CCCC2)cc1,10.1
5,CC(C)(C)c1ccc(C(=O)c2c[nH]c(C(=O)NCC3CCCO3)c2)cc1 (stereo not drawn),8.13
6,COc1ccc(NC(=O)c2ccc(NC(=O)CSc3nccc(=O)[nH]3)cc2)cc1,17.4
7,Cc1ccc(C(=O)OCC(=O)N2CCCCCC2)c(O)c1,8.6
8,CCOc1ccc(NC(=O)c2cc3c(=O)n(C)c4ccccc4c3n2C)cc1,8.36
9,COc1ccc(CNC(=O)[C@@H](NC(=O)C2CCN(C(=O)[C@@H]3CCCN3C(=O)OC(C)(C)C)CC2)C(C)C)cc1,-10.3
10,CCCCNC(=O)c1cn(CC)c2cc(N3CCN(C)CC3)c(F)cc2c1=O,9.71
11,COc1ccccc1CCNC(=O)C(=O)NCC1CCCN1S(=O)(=O)c1ccccc1 (stereo not drawn),-5.91
12,Cl.N=C(N=C(N)N)N1CCOCC1,4.09
13,CCOc1ccc(CNC(=O)c2ccco2)cc1,8.69
14,CCCc1nc2sc3c(c2c(=O)n1NC(=O)CCC(=O)O)CCCC3,-0.0417
15,COc1ccc(OC)c(C2NC(=O)NC(C)=C2C(=O)OCc2ccccc2)c1 (stereo not drawn),9.66
16,CCS(=O)(=O)Nc1cccc(-c2ccc3nnc(-c4cccnc4)n3n2)c1,17.8
17,CCc1nc2ccccc2n1Cc1ccccc1F,18.2
18,Cc1cc2oc(C(=O)Nc3ccc(S(=O)(=O)Nc4nccs4)cc3)cc(=O)c2cc1Cl,-7.77
19,Cc1ccc(OC(C)C(=O)Nc2ccc(F)cc2)c([N+](=O)[O-])n1 (stereo not drawn),5.17
20,O=C(CN1C(=O)CCS(=O)(=O)c2ccccc21)Nc1ccc(Cl)cc1,10.2
21,Cc1sc(N(C(=O)CCc2ccccc2)c2ccc(C(=O)O)cc2)nc1-c1ccccc1,11.3
22,Cc1c(NC(=O)C(C)N2C(=O)C3C4C=CC(C4)C3C2=O)c(=O)n(-c2ccccc2)n1C (stereo not drawn),13.9

row,SMILES,"hERG current change (%, negative = inhibition) at 1uM [%]"
1,COc1cc(C=O)ccc1OCCOCCOc1ccc(Cl)cc1Cl,10.5
2,COC(=O)[C@@H]1[C@@H](C(=O)OC)C2(c3ccccc3-c3ccccc32)N(c2ccc(Cl)cc2)N1C#N,7.26
3,Cc1ccsc1C(=O)NC(C)c1ccccc1 (stereo not drawn),10.8
4,Cc1c(Cl)cccc1NC(=O)C1NC(=O)CC1c1ccccc1 (stereo not drawn),18.2
5,COC(=O)C1CCN(C(=O)c2cc3ccccc3oc2=O)CC1,5.04
6,CCOC(=O)Cc1csc(NC(NC(=O)OCC)(C(F)(F)F)C(F)(F)F)n1,8.98
7,COc1ccccc1CC1C(=O)C2CCN1CC2 (stereo not drawn),10.2
8,O=C(CSc1nnc(CNC(=O)c2ccco2)o1)Nc1cccc(F)c1,14.5
9,CC(=O)c1cccc(NC(=O)CCn2c(=S)oc3ccccc32)c1,12
10,O=C(CCSCc1cccc(F)c1)NCCc1ccccc1,15
11,Cc1cccc(C(=O)N2CCN(Cc3ccc4c(c3)OCO4)CC2)c1,4.12
12,COc1ccc(NS(=O)(=O)c2cccc(C(=O)NCC(c3ccc(OC)cc3)N3CCOCC3)c2)cc1 (stereo not drawn),9.39
13,COC(=O)c1sccc1NC(=O)CSc1ccc(Cl)cc1,8.11
14,CS(=O)(=O)N(CC(=O)NCCSCc1ccco1)c1ccc2c(c1)OCO2,12.1
15,Cc1cc(F)c(F)c(C(=O)N2CCOCC2)c1Cl,24.7
16,COCCCNC(=O)c1ccc(CSCc2ccc(C)cc2)o1,5.23
17,O=S1(=O)[C@H]2C[C@@H]3C=C[C@@]2(CN1Cc1cccc(Cl)c1)O3,4.72
18,COc1ccc(S(=O)(=O)N2CCCCCC2)cc1C(=O)N(C)Cc1ccc(F)cc1,-6.89
19,O=C(CSc1nncc2ccccc12)Nc1cccc(C(=O)O)c1,15.2
20,Cc1cc(C(=O)Nc2c(F)cc(F)cc2Br)n(-c2ccccc2)n1,14.5
21,Cc1ccc(CNC(=O)C(=O)NCC2CCCN2S(=O)(=O)c2cc(C)ccc2C)cc1 (stereo not drawn),8.32
